Experimental data: US10787442B2, “Modulators of indoleamine 2,3-dioxygenase” (GLAXOSMITHKLINE INTELLECTUAL PROPERTY DEVELOPMENT LIMITED, priority 2016, dated 2020)

Target: indoleamine 2, 3-dioxygenase (IDO1) (Homo sapiens, UniProt P14902)
Experiment: IDO1 PBMC RapidFire MS Assay (kynurenine by mass spectrometry)
Type: cell-based
Conditions: human PBMC stimulated with IFN-γ and LPS, 2 days; recorded as pIC50; read-out: IDO1 PBMC PXC50 (converted)
Experimental: IDO1 PBMC RapidFire MS Assay
Compounds of the present invention were tested via high-throughput cellular assays utilizing detection of kynurenine via mass spectrometry and cytotoxicity as end-points. […] Compounds with IDO1 inhibitory properties decreased the amount of kynurenine produced by the cells via the tryptophan catabolic pathway. Cellular toxicity due to the effect of compound treatment was measured using CellTiter-Glo® reagent (CTG) (Promega Corporation, Madison, Wis.), which is based on luminescent detection of ATP, an indicator of metabolically active cells.
In preparation for the assays, test compounds were serially diluted 3-fold in DMSO from a typical top concentration of 1 mM or 5 mM and plated at 0.5 μL in 384-well, polystyrene, clear bottom, tissue culture treated plates with lids (Greiner Bio-One, Kremsmünster, Austria) to generate 11-point dose response curves. Low control wells (0% kynurenine or 100% cytotoxicity) contained either 0.5 μL of DMSO in the presence of unstimulated (−IFN-γ/−LPS) PBMCs for the mass spectrometry assay or 0.5 μL of DMSO in the absence of cells for the cytotoxicity assay, and high control wells (100% kynurenine or 0% cytotoxicity) contained 0.5 μL of DMSO in the presence of stimulated (+IFN-γ/+LPS) PBMCs for both the mass spectrometry and cytotoxicity assays.
Frozen stocks of PBMCs were washed and recovered in RPMI 1640 medium (Thermo Fisher Scientific, Inc., Waltham, Mass.) supplemented with 10% v/v heat-inactivated fetal bovine serum (FBS) (Thermo Fisher Scientific, Inc., Waltham, Mass.), and 1× penicillin-streptomycin antibiotic solution (Thermo Fisher Scientific, Inc., Waltham, Mass.). The cells were diluted to 1,000,000 cells/mL in the supplemented RPMI 1640 medium. 50 μL of either the cell suspension, for the mass spectrometry assay, or medium alone, for the cytotoxicity assay, were added to the low control wells, on the previously prepared 384-well compound plates, resulting in 50,000 cells/well or 0 cells/well respectively. IFN-γ and LPS were added to the remaining cell suspension at final concentrations of 100 ng/ml and 50 ng/ml respectively, and 50 μL of the stimulated cells were added to all remaining wells on the 384-well compound plates. The plates, with lids, were then placed in a 37° C., 5% CO2 humidified incubator for 2 days.
Following incubation, the 384-well plates were removed from the incubator and allowed to equilibrate to room temperature for 30 minutes. For the cytotoxicity assay, CellTiter-Glo® was prepared according to the manufacturer's instructions, and 40 μL were added to each plate well. After a twenty minute incubation at room temperature, luminescence was read on an EnVision® Multilabel Reader (PerkinElmer Inc., Waltham, Mass.). For the mass spectrometry assay, 10 μL of supernatant from each well of the compound-treated plates were added to 40 μL of acetonitrile, containing 10 μM of an internal standard for normalization, in 384-well, polypropylene, V-bottom plates (Greiner Bio-One, Kremsmünster, Austria) to extract the organic analytes. Following centrifugation at 2000 rpm for 10 minutes, 10 μL from each well of the acetonitrile extraction plates were added to 90 μL of sterile, distilled H2O in 384-well, polypropylene, V-bottom plates for analysis of kynurenine and the internal standard on the RapidFire 300 (Agilent Technologies, Santa Clara, Calif.) and 4000 QTRAP MS (SCIEX, Framingham, Mass.). MS data were integrated using Agilent Technologies' RapidFire Integrator software, and data were normalized for analysis as a ratio of kynurenine to the internal standard.

UniProt P14902, sequence (P14902 whole entry): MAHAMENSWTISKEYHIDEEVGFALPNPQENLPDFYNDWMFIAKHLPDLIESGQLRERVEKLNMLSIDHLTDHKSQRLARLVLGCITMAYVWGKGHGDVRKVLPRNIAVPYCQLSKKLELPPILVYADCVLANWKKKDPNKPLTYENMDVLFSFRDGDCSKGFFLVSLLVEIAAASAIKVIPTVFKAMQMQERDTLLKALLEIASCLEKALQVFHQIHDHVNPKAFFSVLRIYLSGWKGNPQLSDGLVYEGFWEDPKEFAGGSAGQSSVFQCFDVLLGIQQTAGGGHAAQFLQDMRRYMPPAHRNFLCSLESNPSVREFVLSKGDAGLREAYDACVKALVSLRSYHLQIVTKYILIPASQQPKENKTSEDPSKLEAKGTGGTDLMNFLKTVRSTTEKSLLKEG

Structure (SMILES) | IC50 [nM]
CO[C@H]1CC[C@H](N(CC(C)C)c2ncc([C@H](C)CC(=O)O)cc2Nc2ccc(Cl)cn2)CC1 [Example 27, (R)-3-(5-((5-chloropyridin-2-yl)amino)-6-(isobutyl((1r,4R)-4-methoxycyclohexyl)amino)pyridin-3-yl)butanoic acid] | 7.94
CC(C)CN(c1ncc([C@H](C)CC(=O)O)cc1Nc1nc(C(F)(F)F)ns1)[C@H]1CC[C@H](O)CC1 [Example 28, (R)-3-(6-(((1r,4R)-4-hydroxycyclohexyl)(isobutyl)amino)-5-((3-(trifluoromethyl)-1,2,4-thiadiazol-5-yl)amino)pyridin-3-yl)butanoic acid] | 5.01
CC(C)CN(c1ncc(-c2ccccc2C(=O)O)cc1Nc1nc(C(F)(F)F)ns1)C1CCOCC1 [Example 29, 2-(6-(isobutyl(tetrahydro-2H-pyran-4-yl)amino)-5-((3-(trifluoromethyl)-1,2,4-thiadiazol-5-yl)amino)pyridin-3-yl)benzoic acid] | 5.01
CC(C)CN(c1ncc([C@H](C)CC(=O)O)cc1Nc1nc(Cl)ns1)C1CCC(F)(F)CC1 [Example 30, (R)-3-(5-((3-chloro-1,2,4-thiadiazol-5-yl)amino)-6-((4,4-difluorocyclohexyl)(isobutyl)amino)pyridin-3-yl)butanoic acid] | 3.98
CC(C)CN(c1ncc(C(C)CC(=O)O)cc1Nc1nc(C(F)(F)F)ns1)C1CCOCC1 (stereo not shown) [Example 31, 3-{6-[(2-methylpropyl)(oxan-4-yl)amino]-5-{[3-(trifluoromethyl)-1,2,4-thiadiazol-5-yl]amino}pyridin-3-yl}butanoic acid] | 2
CC(C)CN(CC(C)C)c1ncc(C(C)CC(=O)O)cc1Nc1nc(Cl)ns1 (stereo not shown) [Example 32, 3-{6-[bis(2-methylpropyl)amino]-5-[(3-chloro-1,2,4-thiadiazol-5-yl)amino]pyridin-3-yl}butanoic acid] | 20
CC(C)CN(c1ncc(C(C)CC(=O)O)cc1Nc1ccc(C#N)cn1)C1CCOCC1 (stereo not shown) [Example 33, 3-{5-[(5-cyanopyridin-2-yl)amino]-6-[(2-methylpropyl)(oxan-4-yl)amino]pyridin-3-yl}butanoic acid] | 10
CC(C)CN(c1ncc(C(C)CC(=O)O)cc1Nc1nc(Cl)ns1)C1CCOCC1 (stereo not shown) [Example 34, 3-{5-[(3-chloro-1,2,4-thiadiazol-5-yl)amino]-6-[(2-methylpropyl)(oxan-4-yl)amino]pyridin-3-yl}butanoic acid] | 12.6
CC(C)CN(c1ncc(C(C)CC(=O)O)cc1Nc1ccc(Cl)cn1)C1CCOCC1 (stereo not shown) [Example 35, 3-{5-[(5-chloropyridin-2-yl)amino]-6-[(2-methylpropyl)(oxan-4-yl)amino]pyridin-3-yl}butanoic acid] | 3.16
CC(C)CN(c1ncc(C(C)CC(=O)O)cc1Nc1nnc(C2CC2)s1)C1CCOCC1 (stereo not shown) [Example 36, 3-{5-[(5-cyclopropyl-1,3,4-thiadiazol-2-yl)amino]-6-[(2-methylpropyl)(oxan-4-yl)amino]pyridin-3-yl}butanoic acid] | 6.31
CC(C)CN(c1ncc(C(C)CC(=O)O)cc1Nc1nc(C2CC2)ns1)C1CCOCC1 (stereo not shown) [Example 37, 3-{5-[(3-cyclopropyl-1,2,4-thiadiazol-5-yl)amino]-6-[(2-methylpropyl)(oxan-4-yl)amino]pyridin-3-yl}butanoic acid] | 20
CC(C)CN(c1ncc([C@H](C)CC(=O)O)cc1Nc1nnc(C2CC2)s1)C1CCOCC1 [Example 38, (3R)-3-{5-[(5-cyclopropyl-1,3,4-thiadiazol-2-yl)amino]-6-[(2-methylpropyl)(oxan-4-yl)amino]pyridin-3-yl}butanoic acid] | 20
CC(C)CN(c1ncc([C@H](C)CC(=O)O)cc1Nc1nc(Cl)ns1)C1CCOCC1 [Example 39, (3R)-3-{5-[(3-chloro-1,2,4-thiadiazol-5-yl)amino]-6-[(2-methylpropyl)(oxan-4-yl)amino]pyridin-3-yl}butanoic acid] | 12.6
CC(C)CN(CC(C)C)c1ncc([C@H](C)CC(=O)O)cc1Nc1nc(C(F)(F)F)ns1 [Example 40, (3R)-3-{6-[bis(2-methylpropyl)amino]-5-{[3-(trifluoromethyl)-1,2,4-thiadiazol-5-yl]amino}pyridin-3-yl}butanoic acid] | 158
CC(C)CN(c1ncc([C@H](C)CC(=O)O)cc1Nc1nc(C2CC2)ns1)C1CCOCC1 [Example 41, (3R)-3-{5-[(3-cyclopropyl-1,2,4-thiadiazol-5-yl)amino]-6-[(2-methylpropyl)(oxan-4-yl)amino]pyridin-3-yl}butanoic acid] | 20
CC(C)CN(c1ncc([C@H](C)CC(=O)O)cc1Nc1n[nH]c(C(F)(F)F)n1)C1CCOCC1 [Example 42, (3R)-3-{6-[(2-methylpropyl)(oxan-4-yl)amino]-5-{[5-(trifluoromethyl)-1H-1,2,4-triazol-3-yl]amino}pyridin-3-yl}butanoic acid] | 158
CC(C)CN(c1ncc([C@H](C)CC(=O)O)cc1Nc1n[nH]c(C#N)n1)C1CCOCC1 [Example 43, (3R)-3-{5-[(5-cyano-1H-1,2,4-triazol-3-yl)amino]-6-[(2-methylpropyl)(oxan-4-yl)amino]pyridin-3-yl}butanoic acid] | 3160
CC(C)CN(c1ncc([C@H](C)CC(=O)O)cc1Nc1n[nH]c(C(N)=O)n1)C1CCOCC1 [Example 44, (3R)-3-{5-[(5-carbamoyl-1H-1,2,4-triazol-3-yl)amino]-6-[(2-methylpropyl)(oxan-4-yl)amino]pyridin-3-yl}butanoic acid] | 6310
Cc1nnc(Nc2cc([C@H](C)CC(=O)O)cnc2N(CC(C)C)C2CCCCC2)s1 [Example 45, (3R)-3-{6-[cyclohexyl(2-methylpropyl)amino]-5-[(5-methyl-1,3,4-thiadiazol-2-yl)amino]pyridin-3-yl}butanoic acid] | 15.8
COC1CCC(N(CC(C)C)c2ncc(C(C)CC(=O)O)cc2Nc2nc(Cl)ns2)CC1 (stereo not drawn) [Example 46, (3RS)-3-{5-[(3-chloro-1,2,4-thiadiazol-5-yl)amino]-6-[(2-methylpropyl)[(1rs&,4rs&)-4-methoxycyclohexyl]amino]pyridin-3-yl}butanoic acid] | 12.6
COCc1ccc(Nc2cc(C(C)CC(=O)O)cnc2N(CC(C)C)C2CCC(OC)CC2)nc1 (stereo not drawn) [Example 47, (3RS)-3-(5-{[5-(methoxymethyl)pyridin-2-yl]amino}-6-[(2-methylpropyl)[(1rs&,4rs&)-4-methoxycyclohexyl]amino]pyridin-3-yl)butanoic acid] | 251
CC(C)CN(c1ncc([C@H](C)CC(=O)O)cc1Nc1nc(C(F)(F)F)c[nH]1)C1CCOCC1 [Example 48, (3R)-3-{6-[(2-methylpropyl)(oxan-4-yl)amino]-5-{[4-(trifluoromethyl)-1H-imidazol-2-yl]amino}pyridin-3-yl}butanoic acid] | 200
COCc1nnc(Nc2cc([C@H](C)CC(=O)O)cnc2N(CC(C)C)C2CCOCC2)s1 [Example 49, (3R)-3-(5-{[5-(methoxymethyl)-1,3,4-thiadiazol-2-yl]amino}-6-[(2-methylpropyl)(oxan-4-yl)amino]pyridin-3-yl)butanoic acid] | 794
COC(=O)c1c[nH]c(Nc2cc([C@H](C)CC(=O)O)cnc2N(CC(C)C)C2CCOCC2)n1 [Example 50, (3R)-3-(5-{[4-(methoxycarbonyl)-1H-imidazol-2-yl]amino}-6-[(2-methylpropyl)(oxan-4-yl)amino]pyridin-3-yl)butanoic acid] | 158
CC(C)CN(CC(C)C)c1ncc([C@H](C)CC(=O)O)cc1Nc1nnc(C(F)(F)F)s1 [Example 51, (3R)-3-{6-[bis(2-methylpropyl)amino]-5-{[5-(trifluoromethyl)-1,3,4-thiadiazol-2-yl]amino}pyridin-3-yl}butanoic acid] | 39.8
